# Data: the RNAGym collection of RNA variant scans (doi:10.1073/pnas.2313332121)
# Variants at the background level are over-represented here.
# B1: TPR 5TU (parent)
# chain: GGAUCUUCUCGAUCUAACAAAAAAGACAAAUCUGCCACAAAGCUUGAGAGCAUCUUCGGAUGCAGAGGCGGCAGCCUUCGGUGGCGCGAUAGCGCCAACGUUCUCAACUAUGACACGCAAAACGCGUGCUCCGUUGAAUGGAGUUUAUCAUG
# Variants of: B1
# Test: polymerase ribozyme fitness, log enrichment relative to wild type (log ratio); higher = more active; in vitro selection for triplet polymerase activity
# Outline: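 Each subunit of a heterodimeric triplet polymerase ribozyme was represented by a PCR-built, transcribed mutant library that underwent triplicate single-round in vitro selection with frozen incubation at −7 °C. Extended constructs were recovered by gel excision, streptavidin-bead capture and RT-PCR, and Illumina sequencing of input and output libraries kept genotypes with ≥10 input reads and ≥1 read per output. Fitness is the logarithm of genotype enrichment relative to wild-type enrichment, from inverse-variance-weighted replicate averages, with a logarithm base of 2.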
row,Variant,polymerase ribozyme fitness (log ratio)
1,GGAUCUUCUCGAUCUAACAAAAAAGAGGAAUCUGCCACAAAGCUUGAGAGCAUCUUCGGAUGCAGAGGCGGCAGCCUUCGGUGGCGCGAUAGGGCCAACGUUCUCAACUAUGAUACGCAUAACGCGUGCUCCGUUGAAUGGAUUUUAUCAUG [C27G A28G C93G C114U A120U G143U],≤ -4.2
2,GGAUCUUCUCGAUCUAACAAAAAAGAGGAAUCUGCCACAAAGCUUGCGAGCAUCUUCGGAUGCAGAGGCGGCAGCCUUUGGUGGCGCGAUAGCCCCAACGUUCUAAACUAUGACACGCAAAACGCGUGCUCCGUUGAAUGGAGUUUAUCAUG [C27G A28G A47C C79U G94C C105A],≤ -4.2
3,GGAUCUUCUCGAUCUAACAAAAAAGAAAAAUCUGCCACAAAGCUUGAGAGCAUCUUCGGAUGCAGAGGCGGCAGCCUUCGGUAGAGCGAUAGCGCUAACGUUCUCAACUAUGACACGCUAAACGCGUGCUCCGUUGAAUGGAGUUUAUCAUG [C27A G83A C85A C96U A119U],≤ -4.2
4,GGAUCUUCUCGAUCUAACAAAAAAGAGAAUUCUGCCACAAAGCUUGAGAGCAUCUUCGGGUGCAGAGGCGGCAGCCUUCGGUGGCGCUAUAGCGCCAACGUUCUCAACUAUGACAUGCAAAACGCGUGCUCCGUUGAAUGGAGUUUAUCAUG [C27G A30U A60G G88U C116U],≤ -4.2
5,GGAUCUUCUCGAUCUAACAAAAAAGAGGAAUCUGCCACACAGCUUGAGAGCAUCUUCGGAUGCAGAGGCGGCAGCCUUCGGUGGUGCGAUAGCGCCAACGUUCUUAACUAUGACACGCAAAACGCGUGCUCCGUUGAAUGGAGUUAAUCAUG [C27G A28G A40C C85U C105U U146A],≤ -4.2
6,GGAUCUUCUCGAUCUAACAAAAAAGAAAAAUCUGCCACAAAGCUUGAGAGCAUCUUCGGAUGCAGAGGCGGCAGCCUUCGGUGGCGUGAUAGCGCCAACGUUCUCAACUAUGACACGCAAAACGCGUGCUCCGUUGAAUGGAGUUUAUCAUG [C27A C87U],-3.91
7,GGAUCUUCUCGAUCUAACAAAAAAGAAAAAUCUGCCACAAAGCUUGAGAGCAUCUUCGGAUGCAGAGGCGGCAGCCUUCGGUGGCGGGAUAGCGCCAACGUUCUCAACUAUGACACGCAAAACGCGUGCUCCGUUGAAUGGAGUUUAUCAUG [C27A C87G],≤ -4.2
8,GGAUCUUCUCGAUCUAACAAAAAAGAGAAUUCUGCCACAAAGCUUGAGAGCGUCUUCGGAUGCAGAGACGGCAGCCAUCGGUGGCGGGAUAGCGCCAACGUUCUCAAAUAUGACACGCCAAUCGGGUGCUCCGUUGAAUGGACUUUAUCAUG [C27G A30U A52G G68A U77A C87G C108A A119C A122U C125G G143C],≤ -4.2
9,GGAUCUUCUCGAUCUAACAAAAAAGAAAAAUCUUCCACAAAGCUUGAGAGCAUCUUCGGAUGCAGAGGCGGCAGCCUUCGGUGGCGCGAUAGCGCCAACGUUAUCAACUAUGACACGCAAAACGCGUGCUCCGUUGGAUGGAGUUUAUCAUG [C27A G34U C103A A137G],≤ -4.2
10,GGAUCUUCUCGAUCUAACAAAAAAGAAAAAUCUUCCACAAAGCUUGAGAGCAUCUUCGGAUGCAGAGGCGGCAGCCUUCGGUGGCGCUAUAGCGCCAACGUUCUCAACUAUGACACGCAAAGCGCGUGCUCCGUUGAAUGGAGUUCAUCAUG [C27A G34U G88U A122G U146C],≤ -4.2
11,GGAUCUUCUCGAUCUAACAAAAAAGAAAAAUCUGCCACAAAGCUUGAGAGCAUCUUCGGAUGCAGAGGCGGCAGCCUUCGGUGGCGCGAUAGCGCCAACGGUCUCAACUAUGACACGCAAAACGCGUGCUCCGUUGAAUGGAGUUUAUCAUG [C27A U101G],-3.63
12,GGAUCUUCUCGAUCUAACAAAAAAGAAAAAUCUGCCACAAAGCUUGAGAGCAUCUUCGGAUGCAGAGGCGGCAGCCUUCGAUGGCGCGAUAGCCCCAACGUUCUCAACUAUGACACGCAAAACGCGUGCUCCGUUGAAUGGAGUUUAUCAUG [C27A G81A G94C],≤ -4.2
13,GGAUCUUCUCGAUCUAACAAAAAAGAAAAAUCUGCCACAAAGCUUGAGAGCAUCUUCAGAUGCAGAGGCGGCAGCCUUCGGUGACGCGAUAGCGCCAACGUUCUCAACUAUGACACGCAAAACGCGUGCUCCGUUGAAUGGAGUUUAUCAUG [C27A G58A G84A],≤ -4.2
14,GGAUCUUCUCGAUCUAACAAAAAAGAGUAAUCUGCCACAAAGCUUGAGAUCAUCUUCGGAUGCAGAGGCGGCAGCCUUCGGUGGCGGGAUAGCGCCAACGUUCUCAACUAUGACACGCAAAACGCGUGCUCCGUUGAAUCGAGUUUAUCAUG [C27G A28U G50U C87G G140C],-3.94
15,GGAUCUUCUCGAUCUAACAAAAAAGAGAAAUCUGCCGCAAAGCUUGAGAGCAUCUUCGGAUGCAGAGGCGGCAGCCUUCGGUGGCGCGAUACCGCCAAAGUUCUCAACUAUGACACGCAAAACGCGUGCUCCGUUGAAUGGAGUUUAUCAUG [C27G A37G G92C C99A],≤ -4.2
16,GGAUCUUCUCGAUCUAACAAAAAAGAAAAAUCUGCCACAAAGCUUGAGAGCAUCUUCGGAUGCAGAGGCGGCAGCCUUCGGUAGCGCGAUAGCGCCAACGUUCUCAACUAUGACACGCAAAACGCGUGCUCCGUUGAAUGGAGUUUAUCAUG [C27A G83A],≤ -4.2
17,GGAUCUUCUCGAUCUAACAAAAAAGAGAAAUCUGCCGCAAAGCUUGAGAGCAUCUUCGGAUGCAGAGGCGGCAGCCUUCGGUGGCGCGAUAGCCCCAACGUUCUCAACUAUGACACGCAAAACGCAUGCUCCGUUGAAUGGAGUUUAUCAUG [C27G A37G G94C G126A],≤ -4.2
18,GGAUCUUCUCGAUCUAACAAAAAAGAGAAAUCUGCCUCAAAGCUUGAGAGCAUCAACGGAUGCAGAGGCAGCAGCCUUCGGUGCCGCGAUAGCGCCAACGUUCUCAAUUAUGACACGCAAAACGCGUGCUCCGUUGAAUGGAGUUUAUCAUG [C27G A37U U55A U56A G70A G84C C108U],≤ -4.2
19,GGAUCUUCUCGAUCUAACAAAAAAGAGACAUCUGCCACAAAGCUUGAGAGCAUCUUCGGAUGCAGAGGCGGCAGCCUUCGGUGGCGCGAUAGUGCCAACGUUCUCAACUAUGACACGCAAAACGCGUGCUCCGUUGAAUGCAGUUUAUCAUG [C27G A29C C93U G141C],≤ -4.2
